Out of some 310,000 compounds screened, about 2,200 (0.71%) showed an effect of 50% or more. Effects have a minus sign here. The list shows a part of the results.
These compounds were tested against human ether-à-go-go-related gene (hERG) potassium channel (human, UniProt Q12809) (assay: primary screen, population patch clamp on CHO cells stably expressing hERG).
Sequence of human ether-à-go-go-related gene (hERG) potassium channel (Q12809 whole entry, looked up): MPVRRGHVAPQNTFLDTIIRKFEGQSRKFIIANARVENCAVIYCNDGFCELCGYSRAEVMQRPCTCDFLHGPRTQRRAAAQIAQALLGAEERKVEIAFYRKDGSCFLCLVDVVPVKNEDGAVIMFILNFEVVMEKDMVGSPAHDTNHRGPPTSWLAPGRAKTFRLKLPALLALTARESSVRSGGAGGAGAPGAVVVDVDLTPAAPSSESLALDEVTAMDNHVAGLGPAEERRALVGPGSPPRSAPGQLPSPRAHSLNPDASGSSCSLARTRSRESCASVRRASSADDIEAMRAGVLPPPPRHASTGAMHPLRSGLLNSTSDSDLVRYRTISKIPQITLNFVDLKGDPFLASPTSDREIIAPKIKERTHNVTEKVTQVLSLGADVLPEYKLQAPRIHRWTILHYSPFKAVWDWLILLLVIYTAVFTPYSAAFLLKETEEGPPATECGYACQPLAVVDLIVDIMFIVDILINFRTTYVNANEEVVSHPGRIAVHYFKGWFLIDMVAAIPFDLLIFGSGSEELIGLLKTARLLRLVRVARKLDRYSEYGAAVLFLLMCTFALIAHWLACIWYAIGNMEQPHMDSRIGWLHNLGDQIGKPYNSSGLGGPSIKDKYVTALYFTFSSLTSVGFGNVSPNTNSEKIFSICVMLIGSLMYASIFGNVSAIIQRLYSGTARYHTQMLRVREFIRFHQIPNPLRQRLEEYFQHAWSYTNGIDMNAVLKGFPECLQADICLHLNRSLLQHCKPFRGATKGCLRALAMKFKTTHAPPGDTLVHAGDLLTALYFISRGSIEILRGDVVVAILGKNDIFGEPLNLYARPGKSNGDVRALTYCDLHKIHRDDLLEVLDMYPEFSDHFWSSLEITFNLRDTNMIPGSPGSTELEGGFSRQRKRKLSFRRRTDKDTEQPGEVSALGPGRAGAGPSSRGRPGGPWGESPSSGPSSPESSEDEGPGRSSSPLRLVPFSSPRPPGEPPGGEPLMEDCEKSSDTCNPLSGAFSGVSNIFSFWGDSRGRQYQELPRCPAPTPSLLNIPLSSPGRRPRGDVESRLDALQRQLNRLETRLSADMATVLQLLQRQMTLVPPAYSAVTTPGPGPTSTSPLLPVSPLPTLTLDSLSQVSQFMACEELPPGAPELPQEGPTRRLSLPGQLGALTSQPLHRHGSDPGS
In the case of `O=C(NCCc1ccccc1)c1nc2ncccn2n1`, the “hERG current change (%, negative = inhibition) at 1uM” value was 4.43%.
In the case of `COc1ccc(/C=N/Nc2nccnc2Cl)c(OC)c1`, the “hERG current change (%, negative = inhibition) at 1uM” value was 9.29%.
With `O=C(O)c1ccc(C(=O)c2ccc3c(c2)C(=O)N(CCO)C3=O)cc1` the “hERG current change (%, negative = inhibition) at 1uM” value was 9%.
For `O=C(Nc1cccc(S(=O)(=O)Nc2ccc(Cl)cc2)c1)c1ccc2c(c1)OCCO2`, the “hERG current change (%, negative = inhibition) at 1uM” value was 1.5%.
For `O=C(O)c1c(Cl)nc2ccccn12`, the “hERG current change (%, negative = inhibition) at 1uM” value was 18%.
`Cc1ccc(NS(=O)(=O)c2ccc(OCC(=O)NCc3ccncc3)cc2)cc1` was tested, and the “hERG current change (%, negative = inhibition) at 1uM” value was 9.69%.
In the case of `COc1ccc(N2CCN(c3ccc4nnc(CCC(=O)Nc5ccc(C)cc5)n4n3)CC2)cc1`, the “hERG current change (%, negative = inhibition) at 1uM” value was -27.8%.
In the case of `Oc1ccccc1/C=N/NC(=S)NC1CC2CCC1C2` (stereo not drawn), the “hERG current change (%, negative = inhibition) at 1uM” value was 15.7%.
In the case of `COc1ccc(C2NC(=O)CS2)cc1OC` (stereo not drawn), the “hERG current change (%, negative = inhibition) at 1uM” value was 4.78%.
For `Cn1c(Cc2csc(N)n2)nnc1SC/C=C/c1ccccc1`, the “hERG current change (%, negative = inhibition) at 1uM” value was 0.144%.
For `c1coc(CNc2nc3sc4c(c3c3ncnn23)CCCC4)c1`, the “hERG current change (%, negative = inhibition) at 1uM” value was 16.6%.
With `CCOc1ncccc1C(=O)Nc1nc(SC)ns1` the “hERG current change (%, negative = inhibition) at 1uM” value was 8.23%.
`COc1cccc(NC(=O)CCc2nnc3ccc(N4CCN(c5cccc(OC)c5)CC4)nn23)c1` was tested, and the “hERG current change (%, negative = inhibition) at 1uM” value was 13.9%.
`S=C(NCC1CCCO1)N1CCN(c2ccccc2)CC1` (stereo not drawn) was tested, and the “hERG current change (%, negative = inhibition) at 1uM” value was 15.4%.
For `O=C(N/N=C\c1ccc[nH]1)c1cncc(Br)c1`, the “hERG current change (%, negative = inhibition) at 1uM” value was 13.6%.
With `Cc1ccc(S(=O)(=O)Nc2cc(C)on2)cc1` the “hERG current change (%, negative = inhibition) at 1uM” value was 14.5%.
With `COc1cc(NC(=O)COC(=O)c2nc3nc(C)cc(C)n3n2)cc(OC)c1` the “hERG current change (%, negative = inhibition) at 1uM” value was 1.87%.
With `Cc1ccc(S(=O)(=O)Nc2nnc(C3CCCCC3)s2)cc1` the “hERG current change (%, negative = inhibition) at 1uM” value was 12.4%.
For `CC(=O)c1ccc(-n2nnnc2SCC(=O)NC2CCCCC2)cc1`, the “hERG current change (%, negative = inhibition) at 1uM” value was 7.29%.
`N#Cc1c(-c2ccc(C(F)(F)F)cc2)cc(-c2ccccc2)[nH]c1=S` was tested, and the “hERG current change (%, negative = inhibition) at 1uM” value was 2.72%.
With `Cc1ccc(C23CC4CC(CC(C(=O)OCC(=O)N(C)C)(C4)C2)C3)cc1` the “hERG current change (%, negative = inhibition) at 1uM” value was 11.5%.
With `c1cncc(-c2nn3cnnc3s2)c1` the “hERG current change (%, negative = inhibition) at 1uM” value was 10.9%.
`O=C(Cn1nnc2ccccc2c1=O)Nc1cccc(S(=O)(=O)N2CCOCC2)c1` was tested, and the “hERG current change (%, negative = inhibition) at 1uM” value was 1.48%.
In the case of `O=C(Nc1ccc(Cl)cc1C(=O)Nc1ccc(Br)cn1)c1ccco1`, the “hERG current change (%, negative = inhibition) at 1uM” value was 2.46%.
`CN=Cc1c(NC)nc2c(C)cccn2c1=O` was tested, and the “hERG current change (%, negative = inhibition) at 1uM” value was 0.708%.
`COc1cc(C(=O)OCC(=O)Nc2cc(C)on2)c([N+](=O)[O-])cc1OC` was tested, and the “hERG current change (%, negative = inhibition) at 1uM” value was 10.4%.
In the case of `CC(C)COc1ccc(C(=O)Nc2ccc(N3CCOCC3)cc2N2CCOCC2)cc1`, the “hERG current change (%, negative = inhibition) at 1uM” value was 2.81%.
In the case of `O=C(C(O)c1ccccc1)N1N=C(c2ccccc2)CC1(O)C(F)(F)F` (stereo not drawn), the “hERG current change (%, negative = inhibition) at 1uM” value was 19.4%.
With `Cc1ccc(Oc2ccccc2)c(NC=O)c1` the “hERG current change (%, negative = inhibition) at 1uM” value was 4.03%.
In the case of `Cc1occc1C(=O)NCc1ccccc1F`, the “hERG current change (%, negative = inhibition) at 1uM” value was -4.14%.
With `Cc1ccc(C)c(CSC2=NCCN2C(=O)c2cccs2)c1` the “hERG current change (%, negative = inhibition) at 1uM” value was 11.7%.
In the case of `CC(=O)Nc1nnc(S(N)(=O)=O)s1`, the “hERG current change (%, negative = inhibition) at 1uM” value was 9.34%.
For `COc1ccc(NC(=O)CCC(=O)Nc2cc(OC)c(NC(=O)c3ccco3)cc2OC)c(OC)c1`, the “hERG current change (%, negative = inhibition) at 1uM” value was 18.5%.
In the case of `O=C(Nc1ccccc1)C1C(c2ccccc2)C1(Cl)Cl` (stereo not drawn), the “hERG current change (%, negative = inhibition) at 1uM” value was 12.8%.
With `Cc1c(N(C)C(=O)c2ccco2)c(=O)n(-c2ccccc2)n1C` the “hERG current change (%, negative = inhibition) at 1uM” value was 8.4%.
In the case of `Cc1noc(/C=C/c2ccco2)c1S(=O)(=O)N1CCC(C(=O)N2CCc3ccccc32)CC1`, the “hERG current change (%, negative = inhibition) at 1uM” value was 10.8%.
`N#Cc1ccc(NC(=O)COC(=O)CCNS(=O)(=O)c2ccccc2)cc1` was tested, and the “hERG current change (%, negative = inhibition) at 1uM” value was -45%.
In the case of `CCc1ccc(Nc2n[n+](-c3ccccc3)c(-c3ccc(N(CC)CC)cc3)s2)cc1.[Cl-]`, the “hERG current change (%, negative = inhibition) at 1uM” value was -9.54%.
`O=C(NC1CCOc2ccccc21)c1ccc(=O)[nH]c1` (stereo not drawn) was tested, and the “hERG current change (%, negative = inhibition) at 1uM” value was 18.5%.
With `Cc1ccc(N2C(=O)c3cccc(Oc4ccc(Cl)cc4)c3C2=O)c(C)c1` the “hERG current change (%, negative = inhibition) at 1uM” value was 7.56%.
`O=C(Nc1cc(N2CCOCC2)ncn1)Nc1cccc2ccccc12` was tested, and the “hERG current change (%, negative = inhibition) at 1uM” value was 15.1%.
In the case of `CCc1ccc(S(=O)(=O)N2CCCC(N3CCN(c4ccc(OC)cc4)CC3)C2)cc1` (stereo not drawn), the “hERG current change (%, negative = inhibition) at 1uM” value was -3.61%.
With `CN(C)CCNC(=O)c1csc(Nc2cccc3ccccc23)n1` the “hERG current change (%, negative = inhibition) at 1uM” value was -19.7%.
For `COc1cc(OC)cc(C(=O)N[C@H](C(=O)OCC(=O)NC(C)c2ccccc2)C(C)C)c1` (stereo partly drawn), the “hERG current change (%, negative = inhibition) at 1uM” value was 1.91%.
With `COc1cccc(C2CCCN2Cc2nc(CCC(C)C)no2)c1` (stereo not drawn) the “hERG current change (%, negative = inhibition) at 1uM” value was 10.5%.

From article PMC4336329 (PLoS ONE, 2015)
